{
  "sequences": {"note": "The chains behind the UniProt entries cited, without tags or fusion partners.", "UniProt Q04656": "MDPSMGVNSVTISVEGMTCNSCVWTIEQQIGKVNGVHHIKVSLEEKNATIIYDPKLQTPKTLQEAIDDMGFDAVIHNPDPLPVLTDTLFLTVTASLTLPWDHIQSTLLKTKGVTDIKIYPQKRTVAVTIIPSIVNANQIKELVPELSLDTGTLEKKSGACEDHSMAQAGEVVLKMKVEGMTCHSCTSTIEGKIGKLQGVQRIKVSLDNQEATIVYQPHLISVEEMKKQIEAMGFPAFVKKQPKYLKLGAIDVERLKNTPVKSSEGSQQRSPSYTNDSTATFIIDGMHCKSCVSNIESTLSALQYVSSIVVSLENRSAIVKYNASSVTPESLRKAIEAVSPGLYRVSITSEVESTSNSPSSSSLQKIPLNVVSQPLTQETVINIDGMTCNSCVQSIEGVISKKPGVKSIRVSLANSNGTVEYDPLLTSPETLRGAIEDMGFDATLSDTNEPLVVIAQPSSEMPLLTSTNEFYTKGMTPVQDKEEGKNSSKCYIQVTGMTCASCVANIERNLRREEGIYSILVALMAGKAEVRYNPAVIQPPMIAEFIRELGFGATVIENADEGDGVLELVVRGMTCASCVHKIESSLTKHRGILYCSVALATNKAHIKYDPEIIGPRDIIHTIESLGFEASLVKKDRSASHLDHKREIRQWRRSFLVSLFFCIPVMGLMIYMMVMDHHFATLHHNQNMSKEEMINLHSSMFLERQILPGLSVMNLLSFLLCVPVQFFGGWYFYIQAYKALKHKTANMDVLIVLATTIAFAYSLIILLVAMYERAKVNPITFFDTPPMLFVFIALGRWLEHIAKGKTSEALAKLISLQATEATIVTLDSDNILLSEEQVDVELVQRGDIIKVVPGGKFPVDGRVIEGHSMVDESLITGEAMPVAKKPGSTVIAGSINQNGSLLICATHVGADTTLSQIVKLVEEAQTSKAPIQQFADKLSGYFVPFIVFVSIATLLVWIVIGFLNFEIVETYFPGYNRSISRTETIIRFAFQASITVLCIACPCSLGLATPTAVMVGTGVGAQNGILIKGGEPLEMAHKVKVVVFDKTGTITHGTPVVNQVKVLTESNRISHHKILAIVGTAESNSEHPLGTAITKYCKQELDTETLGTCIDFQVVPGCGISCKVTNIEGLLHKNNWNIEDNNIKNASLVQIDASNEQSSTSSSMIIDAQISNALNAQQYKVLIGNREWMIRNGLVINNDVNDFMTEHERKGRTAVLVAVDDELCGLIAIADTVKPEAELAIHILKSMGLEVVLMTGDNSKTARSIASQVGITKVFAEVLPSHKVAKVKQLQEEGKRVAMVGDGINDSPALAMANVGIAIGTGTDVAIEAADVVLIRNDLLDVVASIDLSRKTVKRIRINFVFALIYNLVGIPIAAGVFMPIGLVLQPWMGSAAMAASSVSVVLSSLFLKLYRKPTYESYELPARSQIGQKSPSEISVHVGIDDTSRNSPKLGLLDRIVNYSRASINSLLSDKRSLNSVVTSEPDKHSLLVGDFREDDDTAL"},
  "source": "paper PMC8149886",
  "key": {"[1]": {"biological_target": "p62/Sequestosome 1 (SQSTM1) (human (endogenous in HUVEC)) (UniProt Q13501)", "assay": "co-IP; ECs with or without VEGF stimulation (Supplementary Fig. 6)"}, "[2]": {"biological_target": "P-type ATPase transporter ATP7A (human (endogenous in HUVEC)) (UniProt Q04656)", "assay": "co-IP; HUVEC lysates, VEGF (20 ng/ml) for the indicated time; IP with anti-ATP7A antibody, IB with VEGFR2 or ATP7A antibody; lysis buffer pH 7.4, 120 mM NaCl, 1% Triton X-100"}, "[3]": {"biological_target": "P-type ATPase transporter ATP7A (human (endogenous in HUVEC)) (UniProt Q04656)", "assay": "proximity ligation; Duolink in situ PLA in fixed, permeabilised HUVECs, VEGF (20 ng/ml) for 30 min; mouse anti-ATP7A and rabbit anti-VEGFR2 primary antibodies; single or no primary antibody as negative control"}, "myc-ATP7A (human)": {"biological_target": "myc-ATP7A (human) (UniProt Q04656)", "assay": "co-IP; Cos7 cells co-transfected with tagged ATP7A and tagged VEGFR2, with or without VEGF (20 ng/ml); anti-Myc IP and anti-HA IB; IgG as control IP"}, "[4]": {"biological_target": "VEGF receptor type2 (VEGFR2) (human (endogenous in HUVEC)) (UniProt P35968)", "assay": "co-IP; HUVECs transfected with control or ATP7A siRNAs, VEGF (20 ng/ml) for 15 and 30 min; IP with VEGFR2 antibody, IB with p62 or VEGFR2 antibodies"}},
  "note": "These are yes or no findings as the source states them, for the method shown. In cells and extracts the contact can be indirect. Some entries that bind do so weakly or less than the wild type.",
  "data": [
    {"substance": "P-type ATPase transporter ATP7A (from UniProt Q04656 1-1500)", "values": [
      {"measurement": "binding", "setting": "[1]", "value": "no binding"}
    ]},
    {"substance": "VEGF receptor type2 (VEGFR2) (from UniProt P35968 20-1356)", "values": [
      {"measurement": "binding", "setting": "[2]", "value": "binds"},
      {"measurement": "binding", "setting": "[3]", "value": "binds"}
    ]},
    {"substance": "flag-VEGFR2 (from UniProt P35968 20-1356) (receptor)", "values": [
      {"measurement": "binding", "setting": "myc-ATP7A (human)", "value": "binds"}
    ]},
    {"substance": "p62/Sequestosome 1 (SQSTM1) (from UniProt Q13501 1-440)", "values": [
      {"measurement": "binding", "setting": "[4]", "value": "binds"}
    ]}
  ]
}
